Measured values from ChEMBL document CHEMBL1201862, “PubChem BioAssay data set” (2004).
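Interpolation was linear, between the two tested concentrations surrounding the appropriate level; five concentrations were tested over 48 hours in 96-well plates. GI50 is the concentration that inhibits growth by half.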 The source made the active and inactive calls. Cut-off read from the data, not from the text of the source: active = GI50 up to about 1.1 µM and inactive = higher.

What follows are compounds tested on NCI-H322M (assay: inhibition of tumour cell growth, NCI panel, 48 h).
For `C(=C\c1nccs1)/c1cccc(/C=C/c2nccs2)n1`, the GI50 was inactive: > 50 µM. With `CCOC(=O)C12CCCC1(O)N(NC(=O)c1cccc(Cl)c1)C(C)=C2C(=O)OC` (configuration not stated) the GI50 was inactive: > 100 µM. In the case of `O=c1[nH]c(N/N=C\C(=N/Nc2nc3ccccc3c(=O)[nH]2)C(O)C(O)C(O)CO)nc2ccccc12` (configuration not stated), the GI50 is reported as inactive: > 100 µM. `CSc1nc(C)c(Br)c(=O)n1C1OC(COC(C)=O)C(OC(C)=O)C(OC(C)=O)C1OC(C)=O` (configuration not stated) was tested, and the GI50 was inactive: > 100 µM. For `COc1ccc(OC)c2c1C[C@@H]1C(C#N)N3[C@H](Cc4c(OC)ccc(OC)c4[C@@H]3C)C(=O)N1[C@H]2C` (some centres not stated), the GI50 was inactive: 24.8 µM. With `CC(=S)NC=C(C(N)=O)C(N)=O` the GI50 was inactive: > 100 µM. For `Cc1ccccc1NC(=O)C(=O)C(C#N)c1ccc(Cl)cc1` (configuration not stated), the GI50 was inactive: 75.9 µM. `Cn1c(COC(=O)NC2CCCCC2)c(COC(=O)NC2CCCCC2)c2ccc3ccccc3c21` was tested, and the GI50 was inactive: 87.3 µM. With `COc1cccc2c(Nc3ccc(S(=O)(=O)N=C(N)N)cc3)c3ccc([N+](=O)[O-])cc3nc12` the GI50 was inactive: 19.8 µM. For `CN1C(=O)CCC1(O)C1C=CC=CC1` (configuration not stated), the GI50 was inactive: > 100 µM. With `CCOC(=O)c1sc2nc(SC)nc(Nc3ccc(OC)c(OC)c3)c2c1N` the GI50 was inactive: 24.9 µM. With `CCOP(=O)(OCC)/C(C#N)=C/c1[nH]cnc1C` the GI50 was inactive: > 100 µM. In the case of `CC1=NN(c2nc(N)nc(/C(C#N)=C\c3ccc([N+](=O)[O-])s3)n2)C(C)(C)C1`, the GI50 is reported as inactive: 12.4 µM. For `Nc1nc(N)c2c(n1)NC(=O)c1c(c3ccccc3n1Cc1ccc(Cl)cc1)C2`, the GI50 was inactive: 21.9 µM. With `CCOC(=O)C1=C(C(=O)OCC)C2(c3ccccc3)N(O1)c1ccccc1C2(C)C` (configuration not stated) the GI50 was inactive: 53.3 µM. `c1ccc(-c2nc3ccccc3n3c(CN4CCCCC4)nnc23)cc1` was tested, and the GI50 was inactive: > 100 µM. For `COc1ccc2c(c1)CN1C(=N2)CSC1c1c(Cl)cccc1[N+](=O)[O-]` (configuration not stated), the GI50 was inactive: 29.7 µM. In the case of `O=C1C2c3[nH]c4ccccc4c3C3CCC(c4ccccc4)CC3C2C(=O)N1c1ccccc1` (configuration not stated), the GI50 is reported as inactive: > 100 µM. With `[N-]=[N+]=Nc1cc(=O)[nH]c2ccccc12` the GI50 was inactive: > 100 µM. For `O=C(O)[C@@H]1NC[C@H]2C(Br)=NO[C@H]21`, the GI50 was inactive: > 100 µM. With `O=C(C[n+]1ccccc1)N/N=C(/CCC(=O)N(Cc1ccccc1)Cc1ccccc1)CC(=O)c1ccccc1` the GI50 was inactive: > 100 µM. `Cc1cc(C)c2c(c1)C(=O)/C(=C/c1ccccc1C(=O)O)C2` was tested, and the GI50 was inactive: 86.9 µM. For `COc1ccc(NC(=O)CC(=O)N/N=C(\C)c2cc3ccccc3oc2=O)cc1`, the GI50 was inactive: > 100 µM. In the case of `Cc1ccc2nc(CN3CCCCC3)cc(=O)n2c1`, the GI50 is reported as inactive: > 100 µM. In the case of `Cc1cc(S(=O)(=O)NC2=Nc3ccccc3C(c3ccccc3)N2)c(S)cc1Cl` (configuration not stated), the GI50 is reported as inactive: 15.2 µM. `C=C1C(O)C2OC(=O)C(=C)C2C(OC(=O)/C(C)=C/C)CC2(C)OC2C2OC12` (configuration not stated) was tested, and the GI50 was inactive: 11.2 µM. For `CSCC1CC(c2ccc(Cl)cc2)=NO1` (configuration not stated), the GI50 was inactive: > 100 µM. In the case of `O=C1OC(c2ccccc2)=N/C1=C\c1cn[nH]n1`, the GI50 is reported as inactive: > 100 µM. In the case of `C=COCCCOc1ccccc1`, the GI50 is reported as inactive: > 100 µM. In the case of `O=C(O)c1ccc(Nc2ccnc3cc(Cl)ccc23)cc1O`, the GI50 is reported as inactive: > 100 µM. In the case of `CCOC(=O)c1sc2nc(SC)nc3c2c1NC(=O)CN3c1ccc(F)cc1`, the GI50 is reported as inactive: 25 µM. For `CCOC(=O)C1C(=O)C=C(c2cc(C)ccc2O)CC1c1cccc(Cl)c1` (configuration not stated), the GI50 was inactive: 28.2 µM. For `CC(C)c1ccc2c(c1)/C(=C1/Nc3ccccc3C1=O)C(=O)N2`, the GI50 was inactive: 6.85 µM. `COc1ccc2c(c1)nc1n2C(c2c(Cl)cccc2Cl)SC1` (configuration not stated) was tested, and the GI50 was inactive: 44.4 µM. `COc1ccc(NC(=O)CC(=O)N2N=C(N(CCC#N)c3ccccc3Cl)CC2c2ccccc2)cc1` (configuration not stated) was tested, and the GI50 was inactive: > 100 µM. With `CC(C)CCCC(C)[C@H]1CCC2[C@@H]3CCC4Cc5nc6c(nc5C[C@]4(C)C3CC[C@@]21C)CC1CC[C@@H]2C(C[C@@H](O)[C@@]3(C)C2C[C@@H]2OC4(CCC(C)CO4)C(C)[C@@H]23)[C@@]1(C)C6` (some centres not stated) the GI50 was inactive: > 100 µM. With `CC1CCC2C(C(=O)O[C@H]3C4CCO[C@@H](OC5OC(CO)C(O)C(O)C5O)C4[C@@]4(CO)O[C@@H]34)=CO[C@@H](OC3OC(CO)C(O)C(O)C3O)C12` (some centres not stated) the GI50 was inactive: > 10 µM. With `C=C1C(=O)OC2/C=C(\C)CC/C=C(\C)CC(OC(=O)/C(=C/CO)CO)[C@@H]12` (some centres not stated) the GI50 was inactive: 19.4 µM. For `CC(C1=CC=C2[C@@H]3CCC4CC(N(C)C)CC[C@]4(C)C3CC[C@]12C)N(C)C=O` (some centres not stated), the GI50 was inactive: > 100 µM. `O=C(O)CNc1ccc(C(=O)O)cc1` was tested, and the GI50 was inactive: > 100 µM. In the case of `CC(CC(C)(C)[N+](C)(C)C)[N+](C)(C)C` (configuration not stated), the GI50 is reported as inactive: > 100 µM. With `CCC(C)C(NC(=O)C(CCCCN)NC(=O)C(NC(=O)C(CCC(N)=O)NC(=O)C(CCCNC(=N)N)NC(C)=O)C(C)CC)C(=O)NC(Cc1c[nH]c2ccccc12)C(=O)NC(Cc1ccccc1)C(=O)NC(CCC(N)=O)C(=O)NC(CC(N)=O)C(=O)NC(CCCNC(=N)N)C(=O)NC(CCCNC(=N)N)C(=O)NC(CCSC)C(=O)NC(CCCCN)C(=O)NC(Cc1c[nH]c2ccccc12)C(=O)NC(CCCCN)C(=O)NC(CCCCN)C(N)=O` (configuration not stated) the GI50 was inactive: > 50 µM. In the case of `COc1ccc(-c2csc3c2-n2cccc2C3=O)cc1`, the GI50 is reported as active: 0.112 µM. In the case of `O=C1CCC2(c3ccc(F)cc3)Nc3ccccc3N12` (configuration not stated), the GI50 is reported as inactive: > 100 µM. In the case of `O=C(c1cccs1)N1CCN(C(=O)c2cccs2)C1=S`, the GI50 is reported as inactive: 14.8 µM. In the case of `COc1cc(-c2cc(=O)c3c(O)c(OC)c(OC)c(OC)c3o2)ccc1O`, the GI50 is reported as inactive: 45 µM. With `CCN(CC)CCNc1ccc2nnn3c4ccc(OC)cc4c(=O)c1c23` the GI50 was inactive: 6.47 µM.
